# Assay results taken from the supplement of paper PMC8728848.
# The other results are listed elsewhere or left out.
# Legend:
# Test in all cases: glycan array binding signal (z-score within array); higher = stronger binding
# Conditions in all cases: glycan notation: IUPAC condensed, linker removed
# [1] = biological target: Fuc(a1-2)[Gal(a1-3)]Gal(b1-4)GlcNAc(b1-2)Man(a1-3)[Fuc(a1-2)[Gal(a1-3)]Gal(b1-4)GlcNAc(b1-2)Man(a1-6)]Man(b1-4)GlcNAc(b1-4)GlcNAc
# Outline: (§1)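 Negative Z-scores can be read as non-binding. The Z-score is calculated within each array and then averaged across arrays of one protein sequence at different concentrations or buffers and across linkers. Arrays, 3228 in all, were curated from the Consortium for Functional Glycomics database and kept only where the protein sequence was available.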
# [2] = biological target: Fuc(a1-2)[Gal(a1-3)]Gal(b1-4)GlcNAc(b1-2)Man(a1-3)[Fuc(a1-2)[Gal(a1-3)]Gal(b1-4)GlcNAc(b1-2)Man(a1-6)]Man(b1-4)GlcNAc(b1-4)[Fuc(a1-6)]GlcNAc
# Outline: as §1
# [3] = biological target: Fuc(a1-2)[Gal(a1-3)]Gal(b1-4)GlcNAc(b1-3)GalNAc
# Outline: as §1
# [4] = biological target: Fuc(a1-2)[Gal(a1-3)]Gal(b1-4)GlcNAc(b1-3)[Fuc(a1-2)[Gal(a1-3)]Gal(b1-4)GlcNAc(b1-6)]GalNAc
# Outline: as §1
# [5] = biological target: Fuc(a1-2)[Gal(a1-3)]Gal(b1-4)GlcNAc(b1-6)GalNAc
# Outline: as §1
# [6] = biological target: Fuc(a1-2)[Gal(a1-3)]Gal(b1-4)[Fuc(a1-3)]Glc
# Outline: as §1
# [7] = biological target: Fuc(a1-2)[Gal(a1-3)]Gal(b1-4)[Fuc(a1-3)]GlcNAc
# Outline: as §1
# [8] = biological target: Fuc(a1-2)[Gal(a1-3)]Gal(b1-4)[Fuc(a1-3)]GlcNAc(b1-3)GalNAc
# Outline: as §1
# [9] = biological target: Fuc(a1-2)[Gal(a1-4)]Gal(b1-4)GlcNAc
# Outline: as §1
# [10] = biological target: Fuc(a1-2)[GalNAc(a1-3)]Gal
# Outline: as §1
# [11] = biological target: Fuc(a1-2)[GalNAc(a1-3)]Gal(b1-3)GalNAc(a1-3)[Fuc(a1-2)]Gal(b1-4)GlcNAc
# Outline: as §1
# [12] = biological target: Fuc(a1-2)[GalNAc(a1-3)]Gal(b1-3)GalNAc(b1-3)Gal(a1-4)Gal(b1-4)Glc
# Outline: as §1
# [13] = biological target: Fuc(a1-2)[GalNAc(a1-3)]Gal(b1-3)GlcNAc
# Outline: as §1
# [14] = biological target: Fuc(a1-2)[GalNAc(a1-3)]Gal(b1-3)GlcNAc(b1-2)Man(a1-3)[Fuc(a1-2)[GalNAc(a1-3)]Gal(b1-3)GlcNAc(b1-2)Man(a1-6)]Man(b1-4)GlcNAc(b1-4)GlcNAc
# Outline: as §1
# [15] = biological target: Fuc(a1-2)[GalNAc(a1-3)]Gal(b1-3)GlcNAc(b1-2)Man(a1-3)[Fuc(a1-2)[GalNAc(a1-3)]Gal(b1-3)GlcNAc(b1-2)Man(a1-6)]Man(b1-4)GlcNAc(b1-4)[Fuc(a1-6)]GlcNAc
# Outline: as §1
# [16] = biological target: Fuc(a1-2)[GalNAc(a1-3)]Gal(b1-3)GlcNAc(b1-3)GalNAc
# Outline: as §1
# [17] = biological target: Fuc(a1-2)[GalNAc(a1-3)]Gal(b1-3)GlcNAc(b1-6)GalNAc
# Outline: as §1
# [18] = biological target: Fuc(a1-2)[GalNAc(a1-3)]Gal(b1-4)Glc
# Outline: as §1
# [19] = biological target: Fuc(a1-2)[GalNAc(a1-3)]Gal(b1-4)GlcNAc
# Outline: as §1
# [20] = biological target: Fuc(a1-2)[GalNAc(a1-3)]Gal(b1-4)GlcNAc(b1-2)Man
# Outline: as §1
# [21] = biological target: Fuc(a1-2)[GalNAc(a1-3)]Gal(b1-4)GlcNAc(b1-2)Man(a1-3)[Fuc(a1-2)[GalNAc(a1-3)]Gal(b1-4)GlcNAc(b1-2)Man(a1-6)]Man(b1-4)GlcNAc(b1-4)GlcNAc
# Outline: as §1
# [22] = biological target: Fuc(a1-2)[GalNAc(a1-3)]Gal(b1-4)GlcNAc(b1-2)Man(a1-3)[Fuc(a1-2)[GalNAc(a1-3)]Gal(b1-4)GlcNAc(b1-2)Man(a1-6)]Man(b1-4)GlcNAc(b1-4)[Fuc(a1-6)]GlcNAc
# Outline: as §1
# [23] = biological target: Fuc(a1-2)[GalNAc(a1-3)]Gal(b1-4)GlcNAc(b1-3)Gal(b1-4)GlcNAc
# Outline: as §1
# [24] = biological target: Fuc(a1-2)[GalNAc(a1-3)]Gal(b1-4)GlcNAc(b1-3)Gal(b1-4)GlcNAc(b1-3)Gal(b1-4)GlcNAc
# Outline: as §1
# [25] = biological target: Fuc(a1-2)[GalNAc(a1-3)]Gal(b1-4)GlcNAc(b1-3)GalNAc
# Outline: as §1
# [26] = biological target: Fuc(a1-2)[GalNAc(a1-3)]Gal(b1-4)GlcNAc(b1-3)[Fuc(a1-2)[GalNAc(a1-3)]Gal(b1-4)GlcNAc(b1-6)]GalNAc
# Outline: as §1
# [27] = biological target: Fuc(a1-2)[GalNAc(a1-3)]Gal(b1-4)GlcNAc(b1-6)GalNAc
# Outline: as §1
# [28] = biological target: Fuc(a1-2)[GalNAc(a1-3)]Gal(b1-4)[Fuc(a1-3)]GlcNAc
# Outline: as §1
# [29] = biological target: Fuc(a1-2)[GalNAc(a1-3)]Gal(b1-4)[Fuc(a1-3)]GlcNAc(b1-3)GalNAc
# Outline: as §1
# [30] = biological target: Fuc(a1-2)[GalNAc(a1-4)]Gal(b1-4)GlcNAc
# Outline: as §1
# [31] = biological target: Fuc(a1-2)[GalNAc(b1-3)]Gal
# Outline: as §1
# Fuc(a1-3)GlcNAc = biological target: Fuc(a1-3)GlcNAc
# Outline: as §1
# [32] = biological target: Fuc(a1-3)[Gal(b1-4)]Glc6S
# Outline: as §1
# [33] = biological target: Fuc(a1-3)[Gal(b1-4)]GlcNAc
# Outline: as §1
# [34] = biological target: Fuc(a1-3)[Gal(b1-4)]GlcNAc(b1-2)Man
# Outline: as §1
# [35] = biological target: Fuc(a1-3)[Gal(b1-4)]GlcNAc(b1-2)Man(a1-3)[Fuc(a1-3)[Gal(b1-4)]GlcNAc(b1-2)Man(a1-6)]Man(b1-4)GlcNAc(b1-4)GlcNAc
# Outline: as §1
# [36] = biological target: Fuc(a1-3)[Gal(b1-4)]GlcNAc(b1-2)Man(a1-3)[Fuc(a1-3)[Gal(b1-4)]GlcNAc(b1-2)Man(a1-6)]Man(b1-4)GlcNAc(b1-4)[Fuc(a1-6)]GlcNAc
# Outline: as §1
# [37] = biological target: Fuc(a1-3)[Gal(b1-4)]GlcNAc(b1-3)Gal(b1-3)[Fuc(a1-4)]GlcNAc
# Outline: as §1
# [38] = biological target: Fuc(a1-3)[Gal(b1-4)]GlcNAc(b1-3)Gal(b1-4)[Fuc(a1-3)]GlcNAc
# Outline: as §1
# [39] = biological target: Fuc(a1-3)[Gal(b1-4)]GlcNAc(b1-3)Gal(b1-4)[Fuc(a1-3)]GlcNAc(b1-3)Gal(b1-4)[Fuc(a1-3)]GlcNAc
# Outline: as §1
# [40] = biological target: Fuc(a1-3)[Gal(b1-4)]GlcNAc(b1-3)GalNAc
# Outline: as §1
# [41] = biological target: Fuc(a1-3)[Gal(b1-4)]GlcNAc(b1-6)GalNAc
# Outline: as §1
# [42] = biological target: Fuc(a1-3)[Gal(b1-4)]GlcNAc(b1-6)[Gal(b1-3)GlcNAc(b1-3)]Gal(b1-4)Glc
# Outline: as §1
# [43] = biological target: Fuc(a1-3)[Gal(b1-4)]GlcNAc6S
# Outline: as §1
# [44] = biological target: Fuc(a1-3)[Gal3S(b1-4)]Glc
# Outline: as §1
binder,measurement,setting,value
SSR2 (Sclerotium rolfsii) (protein) MVYKITVRVYQTNPDAFFHPVEKTVWKYANGGTWSITDDQHVLTMGGSGTSGTLRFHADNGESFTATFGVHNYKRWCDIVTNLAADETGMVINQQYYSQKNREEARERQLSNYQVKNAKGRNFQIVYTEAEGNDLHANLIIG,glycan array binding signal (z-score),[1],-0.299
same,glycan array binding signal (z-score),[2],-0.295
same,glycan array binding signal (z-score),[3],-0.285
same,glycan array binding signal (z-score),[4],-0.277
same,glycan array binding signal (z-score),[5],-0.277
same,glycan array binding signal (z-score),[6],-0.277
same,glycan array binding signal (z-score),[7],-0.264
same,glycan array binding signal (z-score),[8],-0.285
same,glycan array binding signal (z-score),[9],-0.281
same,glycan array binding signal (z-score),[10],-0.271
same,glycan array binding signal (z-score),[11],-0.212
same,glycan array binding signal (z-score),[12],-0.282
same,glycan array binding signal (z-score),[13],-0.29
same,glycan array binding signal (z-score),[14],-0.287
same,glycan array binding signal (z-score),[15],-0.264
same,glycan array binding signal (z-score),[16],-0.26
same,glycan array binding signal (z-score),[17],-0.297
same,glycan array binding signal (z-score),[18],-0.286
same,glycan array binding signal (z-score),[19],-0.287
same,glycan array binding signal (z-score),[20],-0.275
same,glycan array binding signal (z-score),[21],-0.281
same,glycan array binding signal (z-score),[22],-0.289
same,glycan array binding signal (z-score),[23],-0.305
same,glycan array binding signal (z-score),[24],-0.271
same,glycan array binding signal (z-score),[25],-0.297
same,glycan array binding signal (z-score),[26],-0.294
same,glycan array binding signal (z-score),[27],-0.297
same,glycan array binding signal (z-score),[28],-0.263
same,glycan array binding signal (z-score),[29],-0.253
same,glycan array binding signal (z-score),[30],-0.283
same,glycan array binding signal (z-score),[31],-0.279
same,glycan array binding signal (z-score),Fuc(a1-3)GlcNAc,-0.29
same,glycan array binding signal (z-score),[32],-0.296
same,glycan array binding signal (z-score),[33],-0.284
same,glycan array binding signal (z-score),[34],-0.272
same,glycan array binding signal (z-score),[35],-0.291
same,glycan array binding signal (z-score),[36],-0.279
same,glycan array binding signal (z-score),[37],-0.29
same,glycan array binding signal (z-score),[38],-0.278
same,glycan array binding signal (z-score),[39],-0.266
same,glycan array binding signal (z-score),[40],-0.293
same,glycan array binding signal (z-score),[41],-0.284
same,glycan array binding signal (z-score),[42],-0.283
same,glycan array binding signal (z-score),[43],-0.279
same,glycan array binding signal (z-score),[44],-0.289
